T1: human CDCP1 endogenously expressed on tumor cells (HCT116, SW480, HT-29, LNCaP) (human, UniProt Q9H5V8 30-836)
T1 construct: whole, on cells; also called fl-CDCP1
T1 sequence (looked up): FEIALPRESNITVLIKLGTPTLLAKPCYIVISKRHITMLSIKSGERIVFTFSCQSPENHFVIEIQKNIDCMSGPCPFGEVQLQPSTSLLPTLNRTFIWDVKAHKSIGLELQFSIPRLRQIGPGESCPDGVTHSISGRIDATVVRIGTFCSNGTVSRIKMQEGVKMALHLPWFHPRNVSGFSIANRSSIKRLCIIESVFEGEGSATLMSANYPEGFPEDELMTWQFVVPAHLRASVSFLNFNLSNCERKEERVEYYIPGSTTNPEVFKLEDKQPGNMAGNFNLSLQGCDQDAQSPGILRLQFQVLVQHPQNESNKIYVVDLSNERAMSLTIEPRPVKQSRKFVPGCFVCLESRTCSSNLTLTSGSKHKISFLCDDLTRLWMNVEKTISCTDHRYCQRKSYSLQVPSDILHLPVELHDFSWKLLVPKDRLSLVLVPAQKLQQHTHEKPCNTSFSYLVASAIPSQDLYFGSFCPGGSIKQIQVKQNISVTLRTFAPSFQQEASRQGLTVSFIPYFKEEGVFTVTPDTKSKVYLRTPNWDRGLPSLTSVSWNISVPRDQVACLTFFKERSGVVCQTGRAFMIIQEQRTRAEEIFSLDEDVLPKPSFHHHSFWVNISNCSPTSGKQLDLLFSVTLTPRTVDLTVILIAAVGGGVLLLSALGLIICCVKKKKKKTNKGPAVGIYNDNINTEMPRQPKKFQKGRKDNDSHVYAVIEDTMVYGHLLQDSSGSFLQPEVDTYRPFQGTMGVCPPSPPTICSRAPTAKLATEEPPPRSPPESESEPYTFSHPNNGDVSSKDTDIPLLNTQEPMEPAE

T2: Human CDCP1, His Tag (KACTUS, Cat.No. CDC-HM101) (human, UniProt Q9H5V8 30-667, limits assumed)
T2 construct: Bought protein coated on ELISA plates; also called human CDCP1 antigen; CDCP1 antigen; not shown: His tag
T2 sequence (looked up): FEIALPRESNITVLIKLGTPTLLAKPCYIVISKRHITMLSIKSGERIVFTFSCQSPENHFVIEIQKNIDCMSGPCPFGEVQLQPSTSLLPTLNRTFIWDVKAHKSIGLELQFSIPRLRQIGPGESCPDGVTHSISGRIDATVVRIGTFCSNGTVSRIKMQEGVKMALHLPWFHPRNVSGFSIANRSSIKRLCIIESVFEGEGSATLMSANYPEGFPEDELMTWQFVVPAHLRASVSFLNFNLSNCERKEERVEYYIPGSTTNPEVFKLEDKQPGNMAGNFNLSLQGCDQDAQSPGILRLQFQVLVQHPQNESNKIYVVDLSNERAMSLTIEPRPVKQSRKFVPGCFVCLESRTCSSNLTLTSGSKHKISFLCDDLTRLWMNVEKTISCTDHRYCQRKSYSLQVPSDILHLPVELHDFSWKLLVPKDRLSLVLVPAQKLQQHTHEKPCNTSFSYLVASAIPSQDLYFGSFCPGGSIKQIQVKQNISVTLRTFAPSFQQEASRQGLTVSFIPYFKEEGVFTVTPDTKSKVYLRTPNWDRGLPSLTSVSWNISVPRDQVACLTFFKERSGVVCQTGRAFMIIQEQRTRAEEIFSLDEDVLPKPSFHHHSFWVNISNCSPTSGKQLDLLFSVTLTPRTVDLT

B1: MHAB10-16-15 (Fc fusion)
chain: QLQLVESGGGLVQPGGSLRLSCAASGSDVSANGMVWHRQAPGKQREWVAVISSSGSTNYADSVKGRFTISRDNSKNTMYLQMNSLRPEDTAVYLCGVAHYGQTYWGKGTLVTVSS[human IgG1 Fc with changes cut from this listing]
notes: Humanized nanobody-Fc fusion, second round
B2: MHAB10-16-16 (Fc fusion)
chain: QLQLVESGGGLVQPGGSLRLSCAASGSDVSANGMVWHRQAPGKQREWVAVISSSGSTNYADSVKGRFTISRDNSKNTMYLQMNSLRPEDTAVYYCGVAHYGQTYWGKGTLVTVSS[human IgG1 Fc with changes cut from this listing]
notes: as for B1
B3: MHAB10-16-17 (Fc fusion)
chain: QLQLVESGGGLVQPGGSLRLSCAASGSDVSANGMVWHRQAPGKQREWVAVISSSGSTNYADSVKGRFTISRDSDKNTMYLQMNSLRPEDTAVYYCGVAHYGQTYWGKGTLVTVSS[human IgG1 Fc with changes cut from this listing]
notes: as for B1
B4: MHAB10-16-8 (Fc fusion)
chain: EVQLVESGGGLVQPGGSLRLSCAASGSDVSANGMVWHRQAPGKQREWVAVISSSGSTNYADSVKGRFTISRDSDKNTMYLQMNSLRPEDTAVYYCGVAHYGQTYWGKGTLVTVSS[human IgG1 Fc with changes cut from this listing]
notes: Humanized nanobody-Fc fusion, first round; MW printed 76kDa
B5: MHAB10-16-7 (Fc fusion)
chain: EVQLVESGGGLVQPGGSLRLSCAASGSDVSANGMVWHRQAPGKQREWVAVISSSGSTNYADSVKGRFTISRDNSKNTMYLQMNSLRPEDTAVYYCGVAHYGQTYWGKGTLVTVSS[human IgG1 Fc with changes cut from this listing]
notes: as for B4
B6: MHAB10-16-6 (Fc fusion)
chain: EVQLVESGGGLVQPGGSLRLSCAASGSDVSANGMVWHRQAPGKQREWVAVISSSGSTNYADSVKGRFTISRDNSKNTMYLQMNSLRPEDTAVYLCGVAHYGQTYWGKGTLVTVSS[human IgG1 Fc with changes cut from this listing]
notes: as for B4
B7: MHAB10-16 (Fc fusion)
chain: QLQLVESGGGLVQPGGSLRLSCAASGSDVSANGMVWHRQAPGKQREWVAVISSSGSTNYADSVKGRFTISRDSDKNTMYLQMNNLKPEDTAVYLCGVAHYGQTYWGKGTLVTVSS[human IgG1 Fc with changes cut from this listing]
notes: MW printed 76kDa; also called parental MHAB10-16
B8: MHAB10-16-1 (Fc fusion)
chain: EVQLVESGGGLVQPGGSLRLSCAASGSDVSANGMVWHRQAPGKQREWVAVISSSGSTNYADSVKGRFTISRDSDKNTMYLQMNSLRPEDTAVYLCGVAHYGQTYWGKGTLVTVSS[human IgG1 Fc with changes cut from this listing]
notes: as for B4
B9: MHAB10-16-3 (Fc fusion)
chain: EVQLVESGGGLVQPGGSLRLSCAASGSDVSANGMVWHRQAPGKGREWVAVISSSGSTNYADSVKGRFTISRDNSKNTMYLQMNSLRPEDTAVYLCGVAHYGQTYWGKGTLVTVSS[human IgG1 Fc with changes cut from this listing]
notes: as for B4
B10: MHAB10-16-2 (Fc fusion)
chain: EVQLVESGGGLVQPGGSLRLSCAASGSDVSANGMVWHRQAPGKGREWVAVISSSGSTNYADSVKGRFTISRDSDKNTMYLQMNSLRPEDTAVYLCGVAHYGQTYWGKGTLVTVSS[human IgG1 Fc with changes cut from this listing]
notes: as for B4
B11: MHAB10-16-4 (Fc fusion)
chain: EVQLVESGGGLVQPGGSLRLSCAASGSDVSANGMVWHRQAPGKGREWVAVISSSGSTNYADSVKGRFTISRDNSKNTMYLQMNSLRPEDTAVYYCGVAHYGQTYWGKGTLVTVSS[human IgG1 Fc with changes cut from this listing]
notes: as for B4
B12: MHAB10-16-5 (Fc fusion)
chain: EVQLVESGGGLVQPGGSLRLSCAASGSDVSANGMVWHRQAPGKGREWVAVISSSGSTNYADSVKGRFTISRDSDKNTMYLQMNSLRPEDTAVYYCGVAHYGQTYWGKGTLVTVSS[human IgG1 Fc with changes cut from this listing]
notes: as for B4
B13: MHAB10-16-13 (Fc fusion)
chain: QLQLVESGGGLVQPGGSLRLSCAASGSDVSANGMVWHRQAPGKGREWVAVISSSGSTNYADSVKGRFTISRDNSKNTMYLQMNSLRPEDTAVYYCGVAHYGQTYWGKGTLVTVSS[human IgG1 Fc with changes cut from this listing]
notes: as for B1
B14: MHAB10-16-11 (Fc fusion)
chain: QLQLVESGGGLVQPGGSLRLSCAASGSDVSANGMVWHRQAPGKGREWVAVISSSGSTNYADSVKGRFTISRDSDKNTMYLQMNSLRPEDTAVYLCGVAHYGQTYWGKGTLVTVSS[human IgG1 Fc with changes cut from this listing]
notes: as for B1
B15: MHAB10-16-12 (Fc fusion)
chain: QLQLVESGGGLVQPGGSLRLSCAASGSDVSANGMVWHRQAPGKGREWVAVISSSGSTNYADSVKGRFTISRDNSKNTMYLQMNSLRPEDTAVYLCGVAHYGQTYWGKGTLVTVSS[human IgG1 Fc with changes cut from this listing]
notes: as for B1

biological target: T1, human CDCP1 endogenously expressed on …; assay: flow cytometry on HCT116 cells endogenously expressing human CDCP1

Row | EC50 [µg/mL] | Top [MFI] | bottom [MFI] | Binder
1 | 0.0963 | 53900 | 695 | B1
2 | 0.0922 | 53400 | 864 | B2
3 | 0.119 | 52900 | 889 | B3

biological target: T2, Human CDCP1, His Tag (KACTUS, Cat.No. …); assay: ELISA, plate-coated CDCP1 His Tag 0.5 ug/mL, four-parameter fit

Row | EC50 [µg/mL] | Top [OD450] | bottom [OD450] | Binder
4 | 0.00526 | 2.06 | 0.0483 | B4
5 | 0.00485 | 2.06 | 0.0492 | B5
6 | 0.00456 | 2.06 | 0.0557 | B6

biological target: T2, Human CDCP1, His Tag (KACTUS, Cat.No. …); assay: as above; remark: another data set of the same source

Row | EC50 [µg/mL] | Top [OD450] | bottom [OD450] | Binder
7 | 0.00489 | 1.58 | 0.051 | B1
8 | 0.00547 | 1.56 | 0.0491 | B2
9 | 0.00537 | 1.56 | 0.0479 | B3

biological target: T2, Human CDCP1, His Tag (KACTUS, Cat.No. …); assay: as above; remark: another data set of the same source

Row | EC50 [µg/mL] | Top [OD450] | bottom [OD450] | Binder
10 | 0.00545 | 1.79 | 0.0448 | B7
11 | 0.00411 | 2.18 | 0.0443 | B8
12 | 0.00298 | 2.15 | 0.0343 | B9
13 | 0.00363 | 2.16 | 0.0455 | B10
14 | 0.00382 | 2.18 | 0.0462 | B11
15 | 0.0036 | 2.17 | 0.0387 | B12

biological target: T1, human CDCP1 endogenously expressed on …; assay: cell-based or functional assay

Row | Binder | Bottom, endocytosis-mediated cell killing (Fab-ZAP, HCT116 cells) [%] | EC50 (pM), endocytosis-mediated cell killing (Fab-ZAP, HCT116 cells) [pM] | Top, endocytosis-mediated cell killing (Fab-ZAP, HCT116 cells) [%]
16 | B7 | 9.83 | 16.8 | 67.6
17 | B5 | 14.2 | 24.3 | 77.5
18 | B9 | 13.1 | ~31.8 | 75.6
19 | B11 | 12.9 | 21.2 | 73.2

biological target: T1, human CDCP1 endogenously expressed on …; assay: flow cytometry on HCT116 cells endogenously expressing human CDCP1; remark: another data set of the same source

Row | EC50 [µg/mL] | Top [MFI] | bottom [MFI] | Binder
20 | 0.0553 | 56200 | 410 | B7
21 | 0.0726 | 54200 | 637 | B13
22 | 0.0695 | 53400 | 818 | B14
23 | 0.0741 | 53900 | 680 | B15

biological target: T2, Human CDCP1, His Tag (KACTUS, Cat.No. …); assay: ELISA, plate-coated CDCP1 His Tag 0.5 ug/mL, four-parameter fit; remark: another data set of the same source

Row | EC50 [µg/mL] | Top [OD450] | bottom [OD450] | Binder
24 | 0.00297 | 1.61 | 0.0494 | B7
25 | 0.00487 | 1.59 | 0.054 | B13
26 | 0.00477 | 1.59 | 0.0522 | B14
27 | 0.00417 | 1.6 | 0.0517 | B15

biological target: T1, human CDCP1 endogenously expressed on …; assay: flow cytometry on HCT116 cells endogenously expressing human CDCP1; remark: another data set of the same source

Row | EC50 [µg/mL] | Top [MFI] | bottom [MFI] | Binder
28 | 0.0781 | 62200 | 1010 | B4
29 | 0.0829 | 62300 | 1210 | B5
30 | 0.072 | 63000 | 984 | B12
31 | 0.0661 | 63200 | 1090 | B6

biological target: T1, human CDCP1 endogenously expressed on …; assay: as above; remark: another data set of the same source

Row | EC50 [µg/mL] | Top [MFI] | bottom [MFI] | Binder
32 | 0.0642 | 61600 | 857 | B7
33 | 0.0784 | 62200 | 1130 | B8
34 | 0.074 | 64000 | 1100 | B9
35 | 0.08 | 63400 | 1180 | B10
36 | 0.0675 | 64700 | 700 | B11
